# Data: PubChem BioAssay AID434955 (Southern Research Specialized Biocontainment Screening …, 2010)
# Some of the results follow. The main result of the screen is listed elsewhere. These columns were measured beside it and carry no call. Compounds called inactive in the main read-out are mostly missing here.
# Assay: beta-lactam sensitization of Mtb H37Rv, H37Rv (AID 434955);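 also: growth measured after seven days incubation then overnight dye step; 0% = bacteria only wells and 100% = bacteria with antibiotic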
# Settings: M. tuberculosis H37Rv growth with meropenem, percent inhibition; measured here: primary screen without meropenem; at 25 µM
row,SMILES,inhibition [%]
1,COCCCNC(=O)CS(=O)(=O)Cc1nc(-c2cccc(OC)c2)oc1C,-4.52
2,CN1c2ccccc2C(=O)NC1c1ccc([N+](=O)[O-])s1 (configuration not stated),-0.59
3,CC1CC1C(=O)Nc1nc(-c2cccs2)c(-c2cccs2)s1 (configuration not stated),-3.86
4,O=C(COCc1cc(-c2ccc3c(c2)OCO3)on1)N1CCN(c2cccc(C(F)(F)F)c2)CC1,8.12
5,Cc1cc(=O)[nH]c(N/N=C/c2c(O)n(-c3ccccc3)c(=O)c3ccccc23)n1,31.9
6,CCn1c(=O)cc(OCC(=O)Nc2ccc3c(c2)OCCO3)c2ccccc21,-1.9
7,O=c1c(O)c(-c2ccc3c(c2)OCO3)oc2ccccc12,35.4
8,Cc1cc(=O)oc(C)c1C(=O)O,1.02
9,Cc1cc(C)c2oc(=O)cc(CN3CCN(Cc4ccccc4)CC3)c2c1,15.7
10,O=C(CCCC(=O)N1CCN(c2cccc(Cl)c2)CC1)c1ccccc1,-1.38
11,CCCn1cc(S(=O)(=O)c2ccccc2)c(=O)c2cc(OC)c(OC)cc21,-1.2
12,COc1cccc(CN2CC(C(=O)NCCSc3nnnn3C)CCC2=O)c1 (configuration not stated),-0.14
13,COc1ccc(C2/C(=C(/O)c3ccccc3)C(=O)C(=O)N2CC(C)O)c(OC)c1 (configuration not stated),-2.77
14,O=C(/C=C/c1ccc(OC(F)F)cc1)OCC(=O)N1CCN(C(=O)c2ccco2)CC1,28.2
15,CC(C)COC(=O)N1C[C@H](O)C[C@H]1C(=O)Nc1ccc(Cl)cc1,-6.15
16,Cc1cccc(OCC(=O)NC(=S)NNC(=O)c2ccncc2)c1,-1.16
17,COc1ccc(NC(=O)c2cccc(N3C(=O)C4C5CCC(C5)C4C3=O)c2)cc1 (configuration not stated),-6.24
18,CCOc1ccccc1C(=O)OCC(=O)Nc1ccc(N2CCCCC2)cc1,-8.11
19,Fc1ccc(-c2nnc(Cc3nnc(-c4ccc(F)cc4)o3)o2)cc1,0.21
20,COCc1cc(=O)n2[nH]c(C)nc2n1,0.12
21,CC(=O)N1CCCc2cc(S(=O)(=O)NC(C(=O)NC(C)c3ccccc3)C(C)C)ccc21 (configuration not stated),-7.75
22,Cc1cc(C)c(C(=O)N(C)CC2CCCN(CCc3ccccc3F)C2)o1 (configuration not stated),7.36

row,SMILES,inhibition [%]
1,NC(=O)[C@@H]1CC2(CC(c3cccc(NC(=O)COc4ccc(Cl)cc4)c3)=NO2)CN1C(=O)COc1ccc(Cl)cc1 (some centres not stated),15.5
2,CCOC(=O)c1ccc(N2CN(C3CCCCC3)CNC2=S)cc1,34.8
3,C(=N\NC1=Nc2cccc3cccc1c23)/c1ccccc1,9.94
4,CCCc1cc(N2CCCC(C(=O)NCC)C2)n2ncnc2n1 (configuration not stated),-0.73
5,O=C(NCc1nnc(SCC(=O)N2CCCC2)o1)c1ccccc1,-6.05
6,COc1ccc(NC(=O)NCCN2C(=O)C3C4C=CC(C4)C3C2=O)cc1 (configuration not stated),-5.48
7,CCc1noc(C)c1C(=O)OCC(=O)Nc1ncc(Cl)cc1Cl,1.1
8,O=C(CN1CCN(c2ccccn2)CC1)Nc1cccc(Cl)c1Cl,16.5
9,COc1ccc(N2CCN(C(=O)COCc3cc(-c4ccc5c(c4)OCO5)on3)CC2)cc1,2.66
10,Cc1cccc(N2C(=NC(=O)c3ccccc3)SC3CS(=O)(=O)CC32)c1 (configuration not stated),5.84
11,COc1ccc(NC(=O)CSc2nnc(Cn3c(=O)sc4ccccc43)n2C)c(OC)c1,-5.52
12,COc1cccc(C(=O)Nc2nnc(CCS(=O)(=O)c3ccc(C)cc3)s2)c1,-1.7
13,CC(C)OCC(O)CN1CC2C[C@@H](C1)Cn1c2cccc1=O (some centres not stated),-4.95
14,Cc1sc2ncnc(SCC(=O)N3CCCC3=O)c2c1C,9.37
15,Cc1ccc(C)c(NC(=O)CS(=O)(=O)c2c[nH]c3ccccc23)c1,-3.63
16,CN1CCN(c2oc(-c3ccccc3Cl)nc2S(=O)(=O)c2ccccc2)CC1,7.05
17,COC(=O)COc1ccc2c(c1)O/C(=C\c1ccco1)C2=O,98.6
18,CN(N)C(=S)NCc1ccccc1,-0.45
19,CCN(CCCNC(=O)C1CCN(C(=O)c2cc3sccc3n2C)CC1)Cc1ccccc1,-0.2
20,CCOC(=O)C(=Cc1ccc(F)cc1)C(=O)OCC,27.4
21,Cc1ccccc1N1CCN(Cc2c(C#N)c3ccccc3n2C)CC1,-8.69
22,Cc1cc2oc(=O)cc(CN3CCCCC3C)c2cc1Cl (configuration not stated),-4.81

row,SMILES,inhibition [%]
1,Cc1cc(Cl)ccc1OCCCC(=O)Nc1cccc(-n2cnnn2)c1,-6.32
2,COc1ccc(OC)c(C2=NOC(C(=O)N3CCC4(CC3)OCCO4)C2)c1 (configuration not stated),0.54
3,Cc1ccc(CC(=O)Nc2nnc(-c3ccc(F)cc3)o2)c(C)c1,55.7
4,Cc1ccc2c(CC(=O)OCc3nc(N)nc(Nc4ccccc4C)n3)coc2c1,17.7
5,O=c1cc(-c2ccccc2)[nH]c2nc3ccccc3n12,30.1
6,O=C(NCc1ccc(F)cc1)c1cc(S(=O)(=O)N2CCOCC2)ccc1F,3.08
7,CCOc1ccc(-c2cccc(NC(=O)COc3ccc(Cl)cc3)c2)nn1,4.51
8,O=C(OCC(=O)N1CCN(C(=O)c2ccco2)CC1)c1cc(-c2ccco2)nc2ccccc12,6.06
9,CC(=O)Nc1nonc1-c1nc2ccccc2n1CCC(C)C,34.2
10,COCCn1c(=NC(=O)CCS(=O)(=O)c2ccccc2)sc2ccccc21,-2.08
11,COc1ccccc1NC(=O)CN(Cc1ccco1)C(=O)c1cccs1,-10.4
12,CC1(C)C2CC=C(/C=N/NC(=O)c3ccccc3O)C1C2 (configuration not stated),17
13,O=C(CCN1C(=O)C2C3CCC(C3)C2C1=O)Nc1cccc(Cl)c1 (configuration not stated),10.3
14,O=C(Cc1cccs1)N(Cc1cccs1)C1(C(=O)NC2CCCC2)CCCCC1,8.88
15,Cc1cc2nnc(SCc3ccccc3)n2c(N)n1,-1.32
16,O=C(NCc1ccccc1)C1CCN(c2nc(-c3ccccc3)nc3c2CCC3)CC1,0.47
17,CCCCN=C1CC(C)(C)CC(=O)/C1=C(/O)CCC,-2.63
18,O=C(NCC1COCCO1)c1ccc2nc(Cc3cccc(Cl)c3)oc2c1 (configuration not stated),3
19,CC(C)c1nc(SCC(=O)NC2CCCC2)c2c(=O)n(C)c(=O)n(C)c2n1,8.51
20,CCN(CC)c1ccc(NC(=O)Cn2ncc3c(C)n(Cc4ccccc4F)c(C)c3c2=O)c(C)c1,-9.67
21,O=C(N/N=C/c1ccco1)c1cccc([N+](=O)[O-])c1,-1.22
22,CCOc1nnnc2c1sc1nc(N3CCOCC3)c3c(c12)CCCC3,4.77

row,SMILES,inhibition [%]
1,CC(C)(C)OC(=O)N[C@@H](Cc1ccccc1)C(=O)N1CCC(C(=O)NCC(=O)O)CC1,-2.02
2,CCC(=O)c1ccc(OCc2ccc(C(=O)OC)cc2)c(OC)c1,54.6
3,CC(C)CC(=O)Nc1nnc(SCC(=O)NCC2CCCO2)s1 (configuration not stated),3.28
4,O=Cc1cccc(OCc2cccc3ccccc23)c1,26.4
5,CC(C)c1ccc(Cc2nnc(NCCCO)[nH]c2=O)cc1,-1.24
6,COc1cc(OC)cc(C(=O)N(CN2CCCC2=O)c2ccccc2OC)c1,1.27
7,COC(=O)c1c(NC(=O)C2c3ccccc3Oc3ccccc32)sc(C)c1C,14.8
8,CC(OC(=O)c1ccc([N+](=O)[O-])o1)C(=O)NC1CCCCC1C (configuration not stated),44.5
9,C=CCNC(=O)CCNS(=O)(=O)c1ccc(Br)cc1,1.6
10,O=c1[nH]c(/C=C/c2ccccn2)nc2ccccc12,-1.73
11,O=C(COC(=O)c1ccc(O)cc1O)c1ccc2c(c1)OCO2,91.8
12,O=C(NCCCN=C1NS(=O)(=O)c2ccccc21)c1ccc(F)cc1,-15.4
13,CC(=O)Nc1ccc(C(=O)N(C2=NC(C)CS2)c2ccc(Cl)cc2)cc1 (configuration not stated),6.05
14,CCCCNC(=O)c1onc(CSc2ccccc2CC)c1C(=O)O,30.6
15,CN(C)c1ccc(/C=C(\NC(=O)c2ccccc2)C(=O)NCCCN2CCOCC2)cc1,0.97
16,NS(=O)(=O)c1ccc(CCNC(=O)C2Cc3ccccc3CN2C(=O)c2ccco2)cc1 (configuration not stated),-8.08
17,COc1ccc(CONS(=O)(=O)c2ccc(NC(C)=O)cc2)cc1Cl,2.76
18,CC1=NN(c2ccccc2)C(=O)C1C(=O)c1ccc(Cl)cc1 (configuration not stated),77.7
19,CC(C)C(=O)N(c1cc2sc(=O)oc2c2ccccc12)S(=O)(=O)c1cccs1,9.06
20,O=C(NN1C(=O)c2cc(Br)ccc2NC1c1ccccc1Cl)c1ccncc1 (configuration not stated),38.6
21,CN(CC1CCCCO1)C(=O)c1cc(COc2ccc(F)cc2Cl)on1 (configuration not stated),1.44
22,COc1ccc(-c2nc(CSCC(=O)NCCC3=CCCCC3)c(C)o2)cc1OC,-0.74

row,SMILES,inhibition [%]
1,Cc1cc(C)n(-c2ccc(NC(=O)C3CCCCN3C(=O)c3sccc3C)cc2)n1 (configuration not stated),1.17
2,CCOC(=O)c1ccc(S(=O)(=O)N2CCC(N3CCCCC3)CC2)cc1,-4.62
3,CN(C)CCOc1ccc2c(c1)Sc1ccccc1CC2=O,-1.92
4,CC1=CC=CC2=NC(=O)CC(C)(C(=O)N(CC(=O)NC(C)C)C3CCCC3)N12 (configuration not stated),-2.71
5,COC(=O)c1ccccc1NC(=O)c1noc2c1CC(C(C)(C)C)CC2 (configuration not stated),-7.03
6,Cc1nc2ncnn2c(C)c1CCC(=O)NCc1ccc2c(c1)OCO2,0.86
7,NC(=O)CSc1nnc(NC(=O)C23CC4CC(CC(C4)C2)C3)s1,62.1
8,COc1ccc(S(=O)(=O)Oc2ccccc2C(=S)N2CCOCC2)cc1,2.54
9,CCC(Sc1nc2cc(OC)c(OC)cc2c(=O)n1Cc1ccco1)C(=O)NCCOC (configuration not stated),-17.8
10,CC1CCCC(NC(=O)COC(=O)c2cccc(NS(=O)(=O)/C=C/c3ccccc3)c2)C1C (configuration not stated),44.3
11,Cc1cc(S(=O)(=O)N2CCCC2)c(C)s1,3.51
12,CC1(C)CN=C(Nc2nc3ccccc3s2)S1,36.7
13,COCCNC(=O)c1cc2cc(Br)cc(OC)c2oc1=O,-6.39
14,CCOc1ccc2nc(N(CCN(C)C)C(=O)c3cc4ccccc4cc3OC)sc2c1,49.6
15,COc1ccc(C(=O)OCC(=O)c2ccccc2)cc1S(=O)(=O)N1CCOCC1,5.04
16,O=C(CSc1nnc(CNC(=O)c2cccc(C(F)(F)F)c2)o1)NCc1ccco1,2.16
17,C/C(=N\O)C(C)(C)NC(=O)Nc1ccc(Cl)cc1,-3.12
18,CCOC(=O)C(NC(=O)c1ccc(OC)cc1)(N1CCOCC1)C(F)(F)F (configuration not stated),-4.78
19,Cc1ccc(NC(=O)C2CCCN2S(=O)(=O)c2ccc3c(c2)CCC(=O)N3)cc1Cl (configuration not stated),-1.14
